Measured values: the supplement of paper PMC8728848
The list shows a part of the results.

Key:
Assay in all cases: glycan array binding signal (z-score within array); higher = stronger binding
Details in all cases: glycan notation: IUPAC condensed, linker removed
[1] = biological target: Gal(b1-4)GlcNAc(b1-3)Gal(b1-4)GlcNAc(b1-3)[Gal(b1-4)GlcNAc(b1-3)Gal(b1-4)GlcNAc(b1-6)]GalNAc
In short: (§1)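 Columns mapping to the same glycan were averaged after glycan names were converted to IUPAC-condensed notation. The data come from 3228 arrays in the Consortium for Functional Glycomics database, limited to those with an available protein sequence. Binding is reported as a within-array Z-score averaged across arrays of one protein sequence and across linkers.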

[2] = biological target: Gal(b1-4)GlcNAc(b1-3)Gal(b1-4)GlcNAc(b1-6)[Gal(b1-3)]GalNAc
In short: as §1

[3] = biological target: Gal(b1-4)GlcNAc(b1-3)Gal(b1-4)[Fuc(a1-3)]GlcNAc(b1-3)Gal(b1-4)[Fuc(a1-3)]GlcNAc
In short: as §1

[4] = biological target: Gal(b1-4)GlcNAc(b1-3)GalNAc
In short: as §1

[5] = biological target: Gal(b1-4)GlcNAc(b1-3)[Fuc(a1-3)GlcNAc(b1-6)]Gal(b1-4)Glc
In short: as §1

[6] = biological target: Gal(b1-4)GlcNAc(b1-3)[Gal(b1-4)GlcNAc(b1-6)]Gal(b1-4)GlcNAc
In short: as §1

[7] = biological target: Gal(b1-4)GlcNAc(b1-3)[GlcNAc(b1-6)]Gal(b1-4)GlcNAc
In short: as §1

[8] = biological target: Gal(b1-4)GlcNAc(b1-6)Gal(b1-4)GlcNAc
In short: as §1

[9] = biological target: Gal(b1-4)GlcNAc(b1-6)GalNAc
In short: as §1

[10] = biological target: Gal(b1-4)GlcNAc(b1-6)[Gal(b1-3)]GalNAc
In short: as §1

[11] = biological target: Gal(b1-4)GlcNAc(b1-6)[Gal(b1-4)GlcNAc(b1-3)]GalNAc
In short: as §1

Gal(b1-4)GlcNAc6P = biological target: Gal(b1-4)GlcNAc6P
In short: as §1

Gal(b1-6)Gal = biological target: Gal(b1-6)Gal
In short: as §1

Gal3S(b1-3)GalNAc = biological target: Gal3S(b1-3)GalNAc
In short: as §1

Gal3S(b1-3)GlcNAc = biological target: Gal3S(b1-3)GlcNAc
In short: as §1

B1: a L Fucosidase (Streptosporangium roseum), D2B1P1_STRRD (protein)
chain: MRRKLLLVPAVGLLVIGSIFATQPVASADTPPVYEPTVESLNSHPVPQWFNDDKFGIFIHWGAYSVPAWGPRGSYAEWYGNYMNAGGSATNAHHKATYGQDFNYDAFLQQWKAEKFDPADWVKLFKDAGAKYFVLTSKHHEGMALWDSKSSGRDSVDLGPGRDLAKELFDAARKDEAKLKAGFYYSLYEWYNPAYTGRPATNPYTGAEIPYTGAPGGGDYVKDYMLPQMRELIDGYDPDIIWCDGQWEKPASYWNTAGVIADYYNKALNSGKEVAVANRCKIQSGNLDSPELDFQTPEYTVKPDIDPVKWESSRGIAHSYGYNQNEPEEDHLTSDQLVDSLVDIVSKNGNLLLDIGPKADGTIPEIQRQRLLDIGAWLKANGEAIYGTTYWNRAEEKGGPDDVRYTAKDATLYATALKWPGEQLTLGADLPVDHSTRITMLGSGARLSWSRDEQGRVVVNTPQEAGKHAYVFKIETPGVRSLLRTSSSLAKEIAPGRTISGELTVTNPGKRHTPATKLSLTVPQGWTATLGAPRVRPLGPGESVKVPISVSAPEGVAPAPYTLGLYQRTGRMGTTTALPLTVNRPNLSLGKPATQKSTGYDAPASRAVDGNTGGDWSAGSTTHTAEPEKQAWWQVDLGASARLDSVDVWNRLDCCADRLKDFWVMASDQPFTTDDLDQARTAPGVTAVHVGEQAGSPSKVKLPEGTRGRYVRIQLASPSNPLSLAEVQVRGSMARPNLSLGKPATQKSTGYDAPASRAVDGNTGGDWSAGSTTHTAEPEKQAWWQVDLGASARLDSVDVWNRLDCCADRLKDFWVMASDQPFTTDDLDQARTAPGVTAVHVGEQAGSPSKVKLPEGTRGRYVRIQLASPSNPLSLAEVQVRLEHHHHHHS
[1]
  glycan array binding signal (z-score): -0.245
[2]
  glycan array binding signal (z-score): 0.615
[3]
  glycan array binding signal (z-score): -0.36
[4]
  glycan array binding signal (z-score): -0.418
[5]
  glycan array binding signal (z-score): -0.197
[6]
  glycan array binding signal (z-score): -0.56
[7]
  glycan array binding signal (z-score): 0.31
[8]
  glycan array binding signal (z-score): -0.297
[9]
  glycan array binding signal (z-score): -0.428
[10]
  glycan array binding signal (z-score): -0.345
[11]
  glycan array binding signal (z-score): -0.266
Gal(b1-4)GlcNAc6P
  glycan array binding signal (z-score): -0.219
Gal(b1-6)Gal
  glycan array binding signal (z-score): -0.369
Gal3S(b1-3)GalNAc
  glycan array binding signal (z-score): -0.48
Gal3S(b1-3)GlcNAc
  glycan array binding signal (z-score): -0.339
